Assay results published in paper PMC6919601, “Identification of Plasmodium dipeptidyl aminopeptidase allosteric inhibitors by high throughput screening” (PLoS ONE, 2019).
Screen size: about 110,000 compounds; about 230 (0.21%) showed an effect of 50% or more. Some of the results follow.

These compounds were tested against DPAP1 (Plasmodium falciparum, UniProt Q8IIJ9) (assay: primary screen, percent inhibition; read by cleavage of a fluorogenic dipeptide substrate; higher = more effect of the substance).
Parameters: species or system P. falciparum D10 trophozoite lysates; single well
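Further: 30 min substrate incubation versus DMSO and 10 µM JCP410 controls.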

Sequence of DPAP1 (Q8IIJ9 whole entry, looked up): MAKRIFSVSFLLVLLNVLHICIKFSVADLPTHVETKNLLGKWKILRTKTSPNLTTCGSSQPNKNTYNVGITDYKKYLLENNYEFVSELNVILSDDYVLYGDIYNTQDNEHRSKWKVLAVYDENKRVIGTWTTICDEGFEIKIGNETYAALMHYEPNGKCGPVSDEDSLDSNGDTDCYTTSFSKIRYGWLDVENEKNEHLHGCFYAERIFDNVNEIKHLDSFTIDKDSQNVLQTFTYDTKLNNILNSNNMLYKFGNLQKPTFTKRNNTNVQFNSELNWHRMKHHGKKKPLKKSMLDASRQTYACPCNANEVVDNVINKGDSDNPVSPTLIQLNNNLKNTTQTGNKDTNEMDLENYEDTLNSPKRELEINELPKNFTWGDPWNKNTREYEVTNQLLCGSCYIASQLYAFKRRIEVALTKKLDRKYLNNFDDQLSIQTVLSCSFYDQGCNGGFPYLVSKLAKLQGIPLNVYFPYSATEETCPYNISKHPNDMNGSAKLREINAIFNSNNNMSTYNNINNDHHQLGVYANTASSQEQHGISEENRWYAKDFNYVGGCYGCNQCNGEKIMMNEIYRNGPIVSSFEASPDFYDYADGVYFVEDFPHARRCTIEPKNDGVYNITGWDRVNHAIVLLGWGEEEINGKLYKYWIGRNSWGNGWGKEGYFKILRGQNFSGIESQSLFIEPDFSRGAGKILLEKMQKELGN

Row | Structure (SMILES) | % Inhibition @ 10 uM [%]
1 | CCC(NS(=O)(=O)c1ccc(C)cc1)C(=O)N1CCN(c2ccccn2)CC1 (stereo not drawn) | 0.64
2 | COc1cc(NC(=O)CCn2cnnn2)nc(OC)n1 | -0.92
3 | O=C(CSc1nc2ccccc2nc1N1CCOCC1)NCCc1ccc(Cl)cc1 | 0.032
4 | Cc1ccnc(NC(=O)C(c2ccccc2)c2ccccc2)c1 | 3.83
5 | CC1CC(C)CN(C(=O)Cn2ncc3c4ccccc4n(Cc4cccc(Cl)c4)c3c2=O)C1 (stereo not drawn) | 3.4
6 | CNC(=O)c1nnc(Cc2ccc(F)cc2)o1 | -2.8
7 | CCCCNC(=O)c1[nH]c(C)c(C(C)=O)c1C | -0.719
8 | O=C(NCCC1=CCCCC1)c1ccc(CNC(=O)c2cccc(Br)c2)cc1 | 1.27
9 | COc1cc(OC)cc(C(=O)Nc2ccc3nn(-c4ccc(C)cc4)nc3c2)c1 | 0.214
10 | COc1ccccc1N1CCN(C(=O)c2ccco2)CC1 | 6.08
11 | COc1cc2c(cc1OC)C(c1ccc(O)cc1)NCC2 (stereo not drawn) | -1.8
12 | CCOC(=O)c1cc(-c2ccccc2)n(CC(=O)NC2CCCc3ccccc32)c1C (stereo not drawn) | 1.2
13 | COC(=O)c1[nH]c2ccccc2c1NC(=O)CN(C)C | -1.6
14 | CCCC(=O)Nc1ccc(-c2cn3ccsc3n2)cc1 | -4.26
15 | CC(C)C(=O)Nc1ccc(N2CCOCC2)c2nonc12 | -1.51
16 | O=C(NCC1CCCO1)c1cc(-c2ccccc2)nc2ccccc12 (stereo not drawn) | 2.48
17 | O=C1CC(NCCc2ccccc2)C(=O)N1c1ccccc1 (stereo not drawn) | -17.2
18 | O=S(=O)(Nc1ccc(F)cc1)c1ccc(-c2ccccc2)cc1 | -5.68
19 | CCCCOc1ccc(/C=C(\C#N)c2nc(-c3ccc(C)cc3)cs2)cc1 | -4.21
20 | CCn1c2ccccc2c2cc(CN3CCN(C(=O)c4ccncc4)CC3)ccc21 | -3.78
21 | CC(C)CC(=O)Nc1ccc(NC(=O)c2cccs2)cc1 | -0.545
22 | CCOC(=O)c1c(NC(=O)/C(O)=C/C(=O)c2ccc(OC)cc2)sc2c1CCCC2 | 1.86
23 | C#CCNc1c2c(nc3nncn13)CCC2 | 2.34
24 | O=C1c2ccccc2C(=O)N1c1ccc(Cl)c(Cl)c1 | -4.86

Row | Structure (SMILES) | % Inhibition @ 10 uM [%]
25 | CC1CCCN(CCCNC(=O)Nc2cn(C)c(=O)c3ccccc23)C1 (stereo not drawn) | -3.22
26 | CC(C)OC(=O)c1c(N)sc2c1CCCC2 | 29.9
27 | CCOC(=O)C1=C(CS(=O)(=O)c2ccc(Cl)cc2)NC(=O)NC1c1ccc(C(C)C)cc1 (stereo not drawn) | -2.38
28 | CC1(C)CC(=O)C2=C(C1)OC(N)=C(C#N)C2c1ccc(COc2ccc(Br)cc2)o1 (stereo not drawn) | -6.51
29 | Cc1ccc(S(=O)(=O)c2cnc3cc4c(cc3c2N2CCC3(CC2)OCCO3)OCCO4)cc1 | -3.5
30 | O=C(CCSCCC(=O)NC1CCCCCC1)NC1CCCCCC1 | 2.48
31 | OCCN1CCN(CC#CCn2c3ccccc3c3ccccc32)CC1 | 2.26
32 | Cc1oc2ncn3nc(-c4cccnc4)nc3c2c1C | -5.87
33 | Cc1cc(-c2ccc(C)c(S(=O)(=O)N(CCCN3CCOCC3)Cc3ccco3)c2)on1 | 7.83
34 | CCN1CCN(C(=O)C2=CCN(S(=O)(=O)c3ccc(Br)cc3)CC2)CC1 | 3.54
35 | Cc1ccc(OC(C)C(=O)N(Cc2ccccc2)C2CCS(=O)(=O)C2)cc1C (stereo not drawn) | 0.561
36 | CCCCNS(=O)(=O)c1ccc2nc(-c3cccnc3)cc(C(=O)NCC3CCCN3CC)c2c1 (stereo not drawn) | -3.21
37 | CCOC(=O)N1CCN(C(=O)C2CCCN(S(=O)(=O)c3cccnc3)C2)CC1 (stereo not drawn) | -1.03
38 | Cc1cc(-c2ccc(C)o2)c(C#N)c(SCC(=O)c2ccc(Cl)c(Cl)c2)n1 | -2.47
39 | CC(=O)c1ccc(OCC(O)CN2CCCC(C)C2)cc1 (stereo not drawn) | 0.343
40 | CC(C)CNC(=O)c1cc2c(=O)n3ccccc3nc2n1C | 3.72
41 | CC(=O)c1ccc(NC(=O)CCCCCN2C(=O)c3ccccc3C2=O)cc1 | 0.317
42 | CN1CCN(C(=O)c2nn3c(C(F)(F)F)cc(-c4ccccc4)nc3c2Br)CC1 | 2.03
43 | Nc1nc(OC(C(F)(F)F)C(F)(F)F)nc(OC(C(F)(F)F)C(F)(F)F)n1 | -2.51
44 | Cc1c(C(c2ccccc2O)c2c(C)n(C)n(-c3ccccc3)c2=O)c(=O)n(-c2ccccc2)n1C | 0.467
45 | CCOC(=O)c1ccc(C)c(CNC(=O)CSc2nnc(-c3ccc(C(C)(C)C)cc3)o2)c1 | 1.76
46 | CC(C)(C)c1ccc(C(=O)N[C@@H](Cc2cc(Cl)c(O)c(Cl)c2)C(=O)NCC#N)cc1 | -1.41
47 | COc1ccc(CCNC(=O)C2CCCN2c2nnc(N3CCCC3=O)s2)c(OC)c1 (stereo not drawn) | -4.26
48 | CN1CCN(C(=O)CN(c2cccc(Br)c2)S(=O)(=O)c2ccccc2)CC1 | 2.5

Row | Structure (SMILES) | % Inhibition @ 10 uM [%]
49 | CCOC(=O)N1CCC(NC(=O)C2CCN(Cc3nc(-c4ccccc4F)oc3C)CC2)CC1 | 0.689
50 | COc1ccc(C(=O)/C=C/c2cccc([N+](=O)[O-])c2)cc1 | 0.968
51 | COc1cc2oc(C(=O)O)c(C)c2cc1Br | 3.98
52 | O=C(NCCC1=CCCCC1)c1nnc(Cc2ccc(Cl)cc2)o1 | -2.8
53 | Nc1nnnn1/N=C\c1ccc(-c2ccc3c(c2)C(=O)OC3)o1 | 3.15
54 | CCOc1cccc(C2Nc3cccc4cccc(c34)N2)c1O | 3.05
55 | CC(=O)NC1=NC(=O)/C(=C/c2ccc(-c3ccccc3C(=O)O)o2)S1 | -2.16
56 | Cc1ccc(NC(=O)CN(C)S(=O)(=O)c2ccc3[nH]c4c(c3c2)CCCC4)nc1 | 1.97
57 | COc1cc(C2=N/C(=C\c3sccc3C)C(=O)O2)cc(OC)c1OC | 1.3
58 | O=C(NCc1ccccc1Cl)C1CCN(S(=O)(=O)c2ccc3nc(O)ccc3c2)CC1 | 3.31
59 | CCCCc1c(O)nc2c(c1O)C(=O)CC(c1ccccc1)C2 (stereo not drawn) | -5.63
60 | CCONC(c1ccccc1)(c1ccccc1)c1ccccc1 | -2.98
61 | O=C(Nc1cccc(O)c1)c1ccc(C(=O)c2ccccc2)o1 | -4.89
62 | CCCc1[nH]nc2c1C(c1ccccc1Cl)C(C#N)=C(N)O2 (stereo not drawn) | 4.39
63 | O=c1oc2c([N+](=O)[O-])cccc2cc1-c1nc(-c2ccc(Cl)c(Cl)c2)cs1 | 4.4
64 | CCOCCCNC(=O)c1ccc(-c2nc(CS(=O)c3ccccc3)c(C)o2)cc1 (stereo not drawn) | -7.48
65 | Cc1ccc(S(=O)(=O)N2CCSC2c2ccccc2)cc1 (stereo not drawn) | -4.18
66 | Cc1ccccc1C(=O)c1cccn1CC(=O)NC1CCC(C)CC1 (stereo not drawn) | -2.25
67 | Cn1ncc(Cl)c1C(=O)Nc1ccc(CN2CCCCC2)cc1 | -0.898
68 | Cc1ccsc1/C=C1\SC(N2CCCCC2)=NC1=O | 0.408
69 | CC(C)Cn1c2c(c(=O)[nH]c1=O)C(C(F)(F)F)(C(F)(F)F)NC(CCC1CCCCC1)=N2 | 3.87
70 | COc1ccc(OCc2nc(C#N)c(NCc3ccc(F)cc3)o2)cc1 | -3.16
71 | O=C(c1nn2c(C(F)(F)F)cc(-c3cccs3)nc2c1Cl)N1CCCCCC1 | -5.92
72 | CCN(CC)c1ccc(NC(=O)COc2ccc(OC)cc2)cc1 | -3.76

Row | Structure (SMILES) | % Inhibition @ 10 uM [%]
73 | Cc1cc(C(=O)NCc2cccs2)n(-c2ccccc2)n1 | -0.971
74 | COc1cc(C2C(C#N)=C(N)N(c3nc[nH]n3)C3=C2C(=O)CC(C)(C)C3)cc(OC)c1OC (stereo not drawn) | -0.105
75 | CCOc1cc(C2CC(=O)NC3=C2C(=O)CC(c2ccc(OC)c(OC)c2)C3)ccc1O (stereo not drawn) | 4.23
76 | CCn1ncc(Br)c1C(=O)Nc1ccn(C23CC4CC(CC(C4)C2)C3)n1 | 5.07
77 | COc1cc(CN2CCC3(C=Cc4ccccc43)CC2)cc(OC)c1 | -1.64
78 | Cc1csc(NC(=O)CCc2c(C)nc3nc(CNC(=O)OC(C)(C)C)nn3c2C)n1 | -0.659
79 | COc1cc2c(cc1OC)CN(S(=O)(=O)c1ccc(Oc3ccccc3OC)cc1)CC2 | -5.46
80 | Cc1ccc(S(=O)(=O)N2CCOCC2)cc1C(=O)Nc1ccccc1 | 9.6
81 | Cc1cccc2c1NC1(CCCC1)CC2C (stereo not drawn) | 4.33
82 | Cc1ccc(CNC(=O)COc2ccc(Cl)cc2Cl)cc1 | -1.12
83 | O=C(O)c1ccc(Cl)c(-c2ccc(/C=C3\SC(=O)N(CC(=O)N4CCOCC4)C3=O)o2)c1 | -1.22
84 | N#CC1=C(N)Oc2[nH]nc(-c3ccccn3)c2C1c1ccc(O)cc1 (stereo not drawn) | 2.67
85 | CCN1CCC(N2CC3(C)CC2CC(C)(C)C3)CC1 (stereo not drawn) | -0.0953
86 | O=C(c1ccccc1)N1c2ccccc2-c2ccccc2S1(=O)=O | 0.83
87 | COC(=O)c1sc(N2C(=O)c3oc4cc(C)c(C)cc4c(=O)c3C2c2ccc(O)cc2)nc1C (stereo not drawn) | 0.415
88 | CCOc1ccc2nc(Cl)c(C3CC(c4ccc(C)cc4)=NN3S(C)(=O)=O)cc2c1 (stereo not drawn) | 7.78
89 | COc1cc(CN2CCC(O)CC2)cc(Br)c1O | 2.47
90 | CC(C)(C)NS(=O)(=O)c1ccc(NS(=O)(=O)c2ccc(Br)cc2)cc1 | -0.185
91 | Fc1ccc(-c2noc3ncnc(NCCC4=CCCCC4)c23)cc1 | 8.65
92 | O=C(c1ccc(Cl)cc1Cl)N1CCN(c2ccc3c(c2)OCO3)CC1 | 4.88
93 | O=c1cccc2n1C[C@H]1C[C@@H]2CN(Cc2c(Cl)cccc2Cl)C1 | 3.42
94 | COc1ccccc1-c1nc2c(c(SCC(=O)N3CCCCC3)n1)Cc1c(CO)cnc(C)c1O2 | 2.75
95 | CCN1C(=O)/C(=C\c2cc(C)n(-c3ccccc3C(=O)OC)c2C)C(C(=O)OC)=C1C | 1.63
96 | NC(=O)C1CCN(C/C=C/c2ccccc2)CC1 | 5.03
